# Some of the results follow. Cut-off read from the data, not from the text of the source: active = 3.2 or more and inactive = the rest. Only a few entries rise above the background.
# B1: DGKK_HUMAN_78 (peptide)
# chain: SESATELYTEPTPEP
# B2: ACHD_HUMAN_390 (peptide)
# chain: YISKAEEYFLLKSRS
# B3: ACBG1_HUMAN_658 (peptide)
# chain: EKKDEAVYQAIEEGI
# B4: DCTN2_HUMAN_86 (peptide)
# chain: TGYESGEYEMLGEGL
# B5: DLG3_HUMAN_673 (peptide)
# chain: NEVDGQDYHFVVSRE
# B6: DDX46_HUMAN_294 (peptide)
# chain: NDQDAMEYSSEEEEV
# B7: CTND2_HUMAN_516 (peptide)
# chain: CPSVESPYSKSGPAL
# B8: DDR1_HUMAN_792 (peptide)
# chain: FGMSRNLYAGDYYRV
# B9: ACD11_HUMAN_324 (peptide)
# chain: AGIAQGVYSRYLLGN
# B10: DDR1_HUMAN_792_YA (peptide)
# chain: FGMSRNLYAGDAARV
# B11: DHE3_HUMAN_135 (peptide)
# chain: SWEVIEGYRAQHSQH
# B12: DLG2_HUMAN_750 (peptide)
# chain: KFIEAGQYNDNLYGT
# B13: DOC11_HUMAN_248_YA (peptide)
# chain: ELKMLDKYSHALAAE
# B14: DLG4_HUMAN_580_YA (peptide)
# chain: AEIDGRDYHFVSSRE
# B15: DESP_HUMAN_2817 (peptide)
# chain: SKGLPSPYNMSSAPG
# B16: CYC_HUMAN_49 (peptide)
# chain: GQAPGYSYTAANKNK
# B17: ABLM1_HUMAN_373 (peptide)
# chain: GSPGHTIYAKVDNEI
# B18: DLG1_HUMAN_399 (peptide)
# chain: KNTSDFVYLKVAKPT
# B19: DLG4_HUMAN_715 (peptide)
# chain: IEDLSGPYIWVPARE
# B20: DHE3_HUMAN_512 (peptide)
# chain: IVHSGLAYTMERSAR
# B21: DOCK7_HUMAN_1257 (peptide)
# chain: METVPQLYDFTETHN
# B22: ACHD_HUMAN_390_YA (peptide)
# chain: AISKAEEYFLLKSRS
# B23: DDX41_HUMAN_33 (peptide)
# chain: EDEDDEDYVPYVPLR
# B24: DLG2_HUMAN_750_YA (peptide)
# chain: KFIEAGQYNDNLAGT
# B25: DOK3_HUMAN_381 (peptide)
# chain: NDLASGLYASVCKRA
# B26: DDX5_HUMAN_593_YA (peptide)
# chain: NGMNQQAYAAPATAA
# B27: DOK1_HUMAN_409_YA (peptide)
# chain: ANPATDDYAVPPPRS
# B28: DOK1_HUMAN_337_YA (peptide)
# chain: VQRKKPLYWDLAEHA
# B29: DAB1_HUMAN_198_YA (peptide)
# chain: EDVEDPVYQAIVFEA
# B30: DLG4_HUMAN_240_YA (peptide)
# chain: KNTADVVYLKVAKPS
# B31: DCP1B_HUMAN_191 (peptide)
# chain: ITSSSAIYDNPNLIK
# B32: DOC11_HUMAN_248 (peptide)
# chain: ELKMLDKYSHYLAAE
# B33: DDX3Y_HUMAN_103 (peptide)
# chain: DDRGRSDYDGIGNRE
# B34: DDR1_HUMAN_484 (peptide)
# chain: GPREPPPYQEPRPRG
# B35: DOCK4_HUMAN_167 (peptide)
# chain: DLVPRKEYAMVDPED
# B36: CTND1_HUMAN_904 (peptide)
# chain: TKSLDNNYSTPNERG
# Target: SHP2 C-SH2 domain E139D
# Test: enrichment score (SH2-bound / input frequency) (ratio); bacterial display of known human phosphotyrosine sites (pTyr-Var adds point mutants) read by sequencing; higher = stronger binding; tyrosines were phosphorylated by kinases first
# Details: peptide library: Human pTyr
# 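Note: displayed peptides selected on beads carrying the immobilized SH2 domain, with library peptides lacking any tyrosine serving as negative controls.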
row,Binder,enrichment score
1,B1,inactive: 0.921
2,B2,inactive: 1.73
3,B3,inactive: 1.03
4,B4,inactive: 0.552
5,B5,inactive: 0.547
6,B6,inactive: 1.1
7,B7,inactive: 1.48
8,B8,inactive: 0.734
9,B9,inactive: 0.652
10,B10,inactive: 0.55
11,B11,inactive: 0.666
12,B12,inactive: 0.85
13,B13,inactive: 1.07
14,B14,inactive: 0.613
15,B15,inactive: 0.527
16,B16,inactive: 1.11
17,B17,inactive: 3.16
18,B18,inactive: 0.582

row,Binder,enrichment score
1,B19,inactive: 0.745
2,B20,inactive: 0.787
3,B21,inactive: 0.518
4,B22,inactive: 0.92
5,B23,inactive: 0.956
6,B24,inactive: 0.609
7,B25,inactive: 1.39
8,B26,inactive: 0.727
9,B27,inactive: 0.529
10,B28,inactive: 2.71
11,B29,inactive: 1.3
12,B30,inactive: 0.814
13,B31,inactive: 0.577
14,B32,inactive: 1.34
15,B33,inactive: 0.638
16,B34,inactive: 1.16
17,B35,inactive: 1.33
18,B36,inactive: 1.11

# Target: SHP2 C-SH2 domain wild-type
# Test: as above
# Details: peptide library: Human pTyr
row,Binder,enrichment score
1,B1,inactive: 0.773
2,B2,inactive: 1.63
3,B3,inactive: 0.855
4,B4,inactive: 0.568
5,B5,inactive: 0.54
6,B6,inactive: 1.2
7,B7,inactive: 1.15
8,B8,inactive: 0.7
9,B9,inactive: 0.518
10,B10,inactive: 0.466
11,B11,inactive: 0.63
12,B12,inactive: 0.725
13,B13,inactive: 0.745
14,B14,inactive: 0.667
15,B15,inactive: 0.517
16,B16,inactive: 0.946
17,B17,active: 8.5
18,B18,inactive: 0.519

row,Binder,enrichment score
1,B19,inactive: 0.874
2,B20,inactive: 0.684
3,B21,inactive: 0.451
4,B22,inactive: 0.782
5,B23,inactive: 1.02
6,B24,inactive: 0.429
7,B25,inactive: 1.03
8,B26,inactive: 0.61
9,B27,inactive: 0.435
10,B28,inactive: 2.92
11,B29,inactive: 1.21
12,B30,inactive: 0.866
13,B31,inactive: 0.634
14,B32,inactive: 2.03
15,B33,inactive: 0.507
16,B34,inactive: 1.09
17,B35,inactive: 0.87
18,B36,inactive: 0.833

# Target: SHP2 N-SH2 domain L43F
# Test: as above
# Details: peptide library: Human pTyr
row,Binder,enrichment score
1,B1,inactive: 0.955
2,B2,inactive: 1.22
3,B3,inactive: 1.09
4,B4,inactive: 0.686
5,B5,inactive: 0.802
6,B6,inactive: 1.14
7,B7,inactive: 1.17
8,B8,inactive: 0.832
9,B9,inactive: 0.665
10,B10,inactive: 0.468
11,B11,inactive: 0.61
12,B12,inactive: 0.577
13,B13,inactive: 0.8
14,B14,inactive: 0.599
15,B15,inactive: 0.541
16,B16,inactive: 1.2
17,B17,inactive: 0.668
18,B18,inactive: 0.62

row,Binder,enrichment score
1,B19,inactive: 0.841
2,B20,inactive: 0.903
3,B21,inactive: 0.684
4,B22,inactive: 1.36
5,B23,inactive: 0.744
6,B24,inactive: 0.641
7,B25,inactive: 1.03
8,B26,inactive: 0.786
9,B27,inactive: 0.595
10,B28,inactive: 2.68
11,B29,inactive: 1.06
12,B30,inactive: 0.65
13,B31,inactive: 0.724
14,B32,inactive: 0.773
15,B33,inactive: 0.628
16,B34,inactive: 0.991
17,B35,inactive: 0.968
18,B36,inactive: 0.995

# Target: SHP2 N-SH2 domain T42A
# Test: as above
# Details: peptide library: Human pTyr
row,Binder,enrichment score
1,B1,inactive: 0.983
2,B2,inactive: 1.28
3,B3,inactive: 1
4,B4,inactive: 0.524
5,B5,inactive: 0.724
6,B6,inactive: 0.909
7,B7,inactive: 1.23
8,B8,inactive: 0.644
9,B9,inactive: 0.594
10,B10,inactive: 0.564
11,B11,inactive: 0.656
12,B12,inactive: 0.394
13,B13,inactive: 0.716
14,B14,inactive: 0.454
15,B15,inactive: 0.657
16,B16,inactive: 1.02
17,B17,inactive: 1.2
18,B18,inactive: 0.508

row,Binder,enrichment score
1,B19,inactive: 0.706
2,B20,inactive: 0.718
3,B21,inactive: 0.513
4,B22,inactive: 0.912
5,B23,inactive: 0.972
6,B24,inactive: 0.395
7,B25,inactive: 1.2
8,B26,inactive: 0.732
9,B27,inactive: 0.568
10,B28,inactive: 2.68
11,B29,inactive: 1.4
12,B30,inactive: 0.793
13,B31,inactive: 0.61
14,B32,inactive: 0.876
15,B33,inactive: 0.497
16,B34,inactive: 1.03
17,B35,inactive: 1.09
18,B36,inactive: 0.792

# Target: SHP2 N-SH2 domain T52S
# Test: as above
# Details: peptide library: Human pTyr
row,Binder,enrichment score
1,B1,inactive: 0.941
2,B2,inactive: 1.83
3,B3,inactive: 1.18
4,B4,inactive: 0.492
5,B5,inactive: 0.588
6,B6,inactive: 1.63
7,B7,inactive: 1.21
8,B8,inactive: 0.837
9,B9,inactive: 0.744
10,B10,inactive: 0.507
11,B11,inactive: 0.706
12,B12,inactive: 0.818
13,B13,inactive: 0.892
14,B14,inactive: 0.764
15,B15,inactive: 0.502
16,B16,inactive: 1.1
17,B17,inactive: 0.741
18,B18,inactive: 0.889

row,Binder,enrichment score
1,B19,inactive: 0.754
2,B20,inactive: 0.869
3,B21,inactive: 0.684
4,B22,inactive: 0.896
5,B23,inactive: 1
6,B24,inactive: 0.601
7,B25,inactive: 1.36
8,B26,inactive: 0.741
9,B27,inactive: 0.565
10,B28,inactive: 2.98
11,B29,inactive: 1.1
12,B30,inactive: 0.768
13,B31,inactive: 0.627
14,B32,inactive: 0.85
15,B33,inactive: 0.633
16,B34,inactive: 1.46
17,B35,inactive: 1.38
18,B36,inactive: 1.09

# Target: SHP2 N-SH2 domain wild-type
# Test: as above
# Details: peptide library: Human pTyr
row,Binder,enrichment score
1,B1,inactive: 1.1
2,B2,inactive: 1.97
3,B3,inactive: 1.08
4,B4,inactive: 0.559
5,B5,inactive: 0.804
6,B6,inactive: 1.12
7,B7,inactive: 1.26
8,B8,inactive: 0.926
9,B9,inactive: 0.74
10,B10,inactive: 0.58
11,B11,inactive: 0.75
12,B12,inactive: 0.594
13,B13,inactive: 0.771
14,B14,inactive: 1.31
15,B15,inactive: 0.581
16,B16,inactive: 1.11
17,B17,inactive: 0.752
18,B18,inactive: 0.802

row,Binder,enrichment score
1,B19,inactive: 1.12
2,B20,inactive: 0.878
3,B21,inactive: 0.79
4,B22,inactive: 0.846
5,B23,inactive: 0.852
6,B24,inactive: 0.828
7,B25,inactive: 1.18
8,B26,inactive: 0.758
9,B27,inactive: 0.424
10,B28,active: 3.37
11,B29,inactive: 1.43
12,B30,inactive: 0.658
13,B31,inactive: 0.567
14,B32,inactive: 0.795
15,B33,inactive: 0.635
16,B34,inactive: 1.25
17,B35,inactive: 1.28
18,B36,inactive: 1.23

# — the supplement of paper PMC10369915
